Data: patent US20130244255A1, “ANTIBODIES DIRECTED TO GPNMB AND USES THEREOF” (priority 2006, published 2013)

Legend:
GPNMB = biological target: T1, GPNMB (Homo sapiens, UniProt Q14956); test: Binning of antibodies (Luminex competitive binding); conditions: three bins of six anti-GPNMB antibodies
T1 construct: we cloned the human CG56972 extracellular domain (ECD; aa 23-480); made in house; host or cells: HEK 293 cells
T1 sequence (Q14956 23-492): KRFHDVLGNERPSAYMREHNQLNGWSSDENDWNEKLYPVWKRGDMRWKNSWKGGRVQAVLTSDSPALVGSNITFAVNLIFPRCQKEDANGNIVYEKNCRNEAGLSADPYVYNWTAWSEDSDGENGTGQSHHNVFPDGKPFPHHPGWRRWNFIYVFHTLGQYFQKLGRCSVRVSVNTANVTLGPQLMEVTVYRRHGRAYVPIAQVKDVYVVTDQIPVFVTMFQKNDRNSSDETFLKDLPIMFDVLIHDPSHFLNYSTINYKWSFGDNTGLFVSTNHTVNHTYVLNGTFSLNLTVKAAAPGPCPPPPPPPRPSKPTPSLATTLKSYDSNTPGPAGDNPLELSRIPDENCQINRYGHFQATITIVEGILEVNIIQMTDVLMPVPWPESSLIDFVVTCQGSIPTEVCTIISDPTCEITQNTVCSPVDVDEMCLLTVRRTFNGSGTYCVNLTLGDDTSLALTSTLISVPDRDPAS
Procedure: Certain antibodies, described herein were binned in accordance with the protocol described in U.S. Patent Application Publication No. 20030157730. M×hIgG conjugated beads are prepared for coupling to primary antibody. The volume of supernatant needed is calculated using the following formula: (n+10)×50 μL (where n=total number of samples on plate). Where the concentration is known, 0.5 μg/mL is used. Bead stock is gently vortexed, then diluted in supernatant to a concentration of 2500 of each bead per well or 0.5×10^5/mL and incubated on a shaker in the dark at RT overnight, or 2 hours if at a known concentration of 0.5 μg/mL. Following aspiration, 50 μL of each bead is added to each well of filter plate, then washed once by adding 100 μL/well wash buffer and aspirating. Antigen and controls are added to filter plate 50 μL/well then covered and allowed to incubate in the dark for 1 hour on shaker. Following a wash step, a secondary unknown antibody is added at 50 μL/well using the same dilution (or concentration if known) as is used for the primary antibody. The plates are then incubated in the dark for 2 hours at RT on shaker followed by a wash step. Next, 50 μL/well biotinylated m×hIgG diluted 1:500 is added and allowed to incubate in the dark for 1 hour on shaker at RT. […] Following a wash step, each well is resuspended in 80 μL blocking buffer and read using Luminex. […]

[1] = biological target: T2, cell membrane-bound GPNMB protein (Homo sapiens, UniProt Q14956); test: FACS analysis of anti-GPNMB antibody binding to melanoma cell lines
T2 construct: endogenous in cells; host or cells: UACC-62 and a panel of melanoma lines (A5)
T2 sequence (Q14956 23-572): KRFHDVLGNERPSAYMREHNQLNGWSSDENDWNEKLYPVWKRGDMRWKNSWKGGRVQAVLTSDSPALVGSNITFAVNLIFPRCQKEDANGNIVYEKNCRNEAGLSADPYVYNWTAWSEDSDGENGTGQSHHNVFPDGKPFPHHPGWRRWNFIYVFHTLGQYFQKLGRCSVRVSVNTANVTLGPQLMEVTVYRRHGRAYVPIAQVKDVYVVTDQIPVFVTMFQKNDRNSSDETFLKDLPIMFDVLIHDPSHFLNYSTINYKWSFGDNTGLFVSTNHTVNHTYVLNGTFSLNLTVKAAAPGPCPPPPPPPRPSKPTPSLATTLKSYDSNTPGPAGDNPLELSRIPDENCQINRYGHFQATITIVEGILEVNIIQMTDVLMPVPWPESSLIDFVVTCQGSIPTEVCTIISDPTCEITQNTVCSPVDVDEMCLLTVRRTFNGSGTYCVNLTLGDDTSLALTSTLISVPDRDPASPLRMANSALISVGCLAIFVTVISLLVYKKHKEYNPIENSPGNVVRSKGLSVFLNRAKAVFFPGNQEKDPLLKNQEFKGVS

- bin (GPNMB): Bin 2
- binding to GPNMB expressing cells by FACS (in words) [1]: does not bind to GPNMB expressing cells
B1: 2.3.1: human anti-GPNMB antibody; VH SEQ ID NO: 200, VL SEQ ID NO: 209 (antibody, listed as Homo sapiens, V domains shown)
VH: [about 100 residues not listed]DFFGSGSLLYFDYWGQGTLVTVSSA
VL: DIVMTQTPLSLSVTPGQPASISCKSSQSLLHSGGKTYLYWYLQRPGQPPQLLIYEVSNRFSGVPDRFSGSGSGTDFTLKISRVEAEDVGVYYCMQSIHLPLTFGGGTKVEIKR
